From paper PMC4336329 (PLoS ONE, 2015)
Hit rate of the full screen: of about 310,000 compounds, about 14,000 (4.5%) showed an effect of 50% or more. The effect is printed as a negative number. Some of the results follow.

target: human ether-à-go-go-related gene (hERG) potassium channel (human, UniProt Q12809); experiment: primary screen, population patch clamp on CHO cells stably expressing hERG
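Note: peak tail current of the secondary pulse compared with the same well before compound.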

Sequence of human ether-à-go-go-related gene (hERG) potassium channel (Q12809 whole entry, looked up): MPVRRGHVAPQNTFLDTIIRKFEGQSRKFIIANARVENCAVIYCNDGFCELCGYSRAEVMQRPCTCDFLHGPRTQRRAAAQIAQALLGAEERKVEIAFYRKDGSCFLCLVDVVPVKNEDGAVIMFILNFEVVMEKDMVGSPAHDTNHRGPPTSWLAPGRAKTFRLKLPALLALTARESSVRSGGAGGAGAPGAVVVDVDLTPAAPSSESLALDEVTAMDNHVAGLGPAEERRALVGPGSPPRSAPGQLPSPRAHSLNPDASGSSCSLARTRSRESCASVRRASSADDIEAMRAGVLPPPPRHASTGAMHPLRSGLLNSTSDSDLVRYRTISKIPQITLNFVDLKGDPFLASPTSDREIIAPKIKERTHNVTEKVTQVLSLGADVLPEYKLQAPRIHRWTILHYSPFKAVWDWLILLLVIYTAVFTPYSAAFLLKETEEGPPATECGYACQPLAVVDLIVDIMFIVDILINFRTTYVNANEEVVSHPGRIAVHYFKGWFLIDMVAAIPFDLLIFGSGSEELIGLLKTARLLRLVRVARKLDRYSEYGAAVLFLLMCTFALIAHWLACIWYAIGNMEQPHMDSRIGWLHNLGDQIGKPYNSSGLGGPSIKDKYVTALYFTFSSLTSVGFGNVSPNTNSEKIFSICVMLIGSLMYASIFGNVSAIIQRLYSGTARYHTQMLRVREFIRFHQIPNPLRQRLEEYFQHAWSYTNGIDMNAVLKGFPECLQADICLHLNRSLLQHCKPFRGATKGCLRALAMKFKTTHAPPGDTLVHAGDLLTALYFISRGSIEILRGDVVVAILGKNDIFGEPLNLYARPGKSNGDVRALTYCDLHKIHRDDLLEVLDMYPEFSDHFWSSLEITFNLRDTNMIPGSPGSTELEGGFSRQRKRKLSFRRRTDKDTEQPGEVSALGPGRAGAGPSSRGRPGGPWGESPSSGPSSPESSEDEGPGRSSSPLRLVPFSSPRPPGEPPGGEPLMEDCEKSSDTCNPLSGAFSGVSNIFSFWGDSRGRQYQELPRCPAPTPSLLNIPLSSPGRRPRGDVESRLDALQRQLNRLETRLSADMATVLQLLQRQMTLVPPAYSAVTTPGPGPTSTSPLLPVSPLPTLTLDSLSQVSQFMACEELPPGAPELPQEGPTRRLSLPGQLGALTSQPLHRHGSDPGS

SMILES	hERG current change (%, negative = inhibition) at 10uM [%]
COc1ccc(NC(=S)N2CCN(C(c3ccccc3)c3ccccc3)CC2)cc1OC	0.949
CN(C)S(=O)(=O)c1cccc(C(=O)NCCNC(=O)c2cccc(S(=O)(=O)N(C)C)c2)c1	15.9
COc1ccc(/C=N/NC(=O)C(=O)Nc2ccccn2)cc1OC	-27.2
CCn1c(COc2cccc3cccnc23)nnc1SCC(=O)O	7.93
COC(=O)C1=C(C)N2C(=O)CSC2=NC1c1ccc2c(c1)OCO2 (stereo not shown)	-7.09
CCOC(=O)c1[nH]c2ccc(Br)cc2c1NC(=O)CCN1CCCC(C)C1 (stereo not shown)	-73.1
Cn1c(N)c(C(=O)COC(=O)CCC(=O)c2cccs2)c(=O)n(C)c1=O	-13.7
CC(C)c1nnc(NC(=O)C2CCCN2C(=O)Nc2cccc(Cl)c2)s1 (stereo not shown)	-18
CCOc1ccc(/C=C2\SC(=S)N(CCC(=O)Nc3ccccc3C(=O)O)C2=O)cc1	15.4
O=C(Cc1c(Cl)cccc1Cl)OCC(=O)N1CCc2ccccc2C1	-13.7
CCc1nn2c(=O)cc(COc3ccc(NC(=O)c4ccco4)cc3)nc2s1	-6.11
Cc1ccccc1C(=O)N=c1sccn1C	24.7
CC(=O)Nc1ccc(S(=O)(=O)Nc2cc(C)ccn2)cc1	11.5
Cc1cc(C(=O)NC2CCCN(Cc3ccc(Cl)cc3)C2)n(C)n1 (stereo not shown)	-16
Nn1c(SCc2ccccc2)nc2c(cnn2-c2ccccc2)c1=O	-3.57
N#CC1(c2ccccc2)CCCN1C(=O)c1ccco1 (stereo not shown)	-12
CC(C)(C)OC(=O)N1CCC[C@@H]1CO	-8
Cc1ccc(-n2nc3c(c2NC(=O)c2cccs2)CSC3)cc1	7.81
CS(=O)(=O)c1ccc(-c2nnn(CC(=O)N3CCCCC3)n2)cc1	21.1
Cc1ccc2c(c1)C1CN(C)CCC1N2C(=O)c1ccco1 (stereo not shown)	-7.26
Cc1ccc(/C=N/NC(=O)Cn2cncn2)cc1	24.4
COc1ccc(C2=Nn3c(nnc3-c3ccccc3)SC2)cc1OC	7.08

SMILES	hERG current change (%, negative = inhibition) at 10uM [%]
CC(=O)Nc1ccc(N2C(C(C)=O)=NN(c3ccc(Cl)cc3)C2c2sccc2C)cc1 (stereo not shown)	4.29
Cc1ccc(CCC(=O)Nc2ccc([N+](=O)[O-])cc2)o1	0.967
COc1cc(C#Cc2c(-c3cncn3C)n(C)c3ccc(-c4ccc(OC)c(OC)c4)cc23)cc(OC)c1	-1.2
CN(C(=O)c1cnc2n(c1=O)CCS2)C1CCCCC1	24.6
CCOC(=O)C1CCCN(c2c(NCC3CCCO3)c(=O)c2=O)C1 (stereo not shown)	9.66
CCCC(C)n1[nH]c(=O)c2c1NC(=O)CSC2c1ccc(OC)c(OC)c1 (stereo not shown)	15.4
CCOC(=O)CNC(=O)CN1C(=O)CCS(=O)(=O)c2ccccc21	12.3
CCCC(NC(=O)Cc1c(C)c2cc3c(C)c(C)oc3c(C)c2oc1=O)C(=O)N[C@@H](Cc1ccccc1)C(=O)O (stereo partly shown)	-1.16
O=C(CSc1n[nH]c(-c2ccccc2)n1)c1ccccc1	7.43
Cc1nc([N+](=O)[O-])c(C(=O)OCc2ccccc2)n1C	19
CCn1c(=O)cc(OCC(=O)Nc2ccccc2N2CCN(C)CC2)c2ccccc21	-58.3
Nn1cc(-c2ccccc2)nc1SCC(=O)NCCc1ccccc1	6.04
CCCCc1cc(=O)oc2cc(C)cc(OCC(=O)NCc3ccccn3)c12	-56.4
CC1=NN(c2ccccc2)C(=O)/C1=C\c1sccc1C	-9.78
O=C(COc1ccc2c(c1)C(=O)CC1(CCCCC1)O2)NCc1ccccc1	0.962
CCOC(=O)N1CCC(N2Cc3cccc(C(=O)NCc4ccccc4OC)c3C2=O)CC1	-71.2
COc1cc(/C=C/C(=O)c2ccccc2O)cc(OC)c1OC	5.27
CCN(Cc1ccccc1)S(=O)(=O)CCNC(=O)c1ccc(OC)cc1	5.23
Cc1ccc(NS(=O)(=O)c2ccc(Cl)c(C(=O)Nc3ccccc3-c3nc4ccccc4[nH]3)c2)cc1C	17.2
NC(=O)c1ccc[n+](Cc2ccccc2)c1.[I-]	1.43
N#Cc1cccc(CSc2ncnc(N)n2)c1	12.4
